# Measurements as given in the supplement of paper PMC8728848.
# This is one part of the list.
# B1: GS7807E-bfa-538-23-538 (Bacteroides fragilis) (protein)
# chain: TDSFESFNTNEAGFDNDSKKQDFNYYGIPLGIIQQGIYFNYDWGSGKNWPFQTMQNLGADLFSGYVHDFNPFNEGKNNSTYYMMDGWNGSTWDNTYGYIMPEVQKSETINEKDNIGFFGITKILKVELMHRLSDLYGPIVYTQFGSKTGSTPDTQQEAYKAFFNDLDTGIAKIREYQKANPDIESFAKFDILMPQGKRTFSEWIRFANSLRLRLAVRIAMADSKLAVAEAQKALTDEEGLLEGNDEVVAVSTSSGYTNPFGEINKAWGEVFMNANMESLLVGYEDPRMEKYFDKATGSDATSLIDYKGTYKGIRQGTGFSHKNYNGHSKSTITQQTDAVLMTPAEVWFLRAEAALRGWSSESVKDCYEKGVKASFAQWGAAGAEAYLESDRKPSDYVDAFKAANNVKAVNTLTPKWDDAAGNEDKLGRIITQKWLAMFPEGGEAWAEQRRTGYPRLFPVLVNQSEGTVDTNLGPRRLNFFVGIKTTNPEQYTQLVNALGGIDNCGTRLWWDTGRNF
# Assays:
# Assay in all cases: glycan array binding signal (z-score within array); higher = stronger binding
# Settings in all cases: glycan notation: IUPAC condensed, linker removed
# Fuc(a1-3)GlcNAc = biological target: Fuc(a1-3)GlcNAc
# How it was run: (§1)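 The binding signal is a Z-score computed within each array. Data were drawn from 3228 arrays in the Consortium for Functional Glycomics database, restricted to those with a known protein sequence. Scores were averaged over arrays of the same protein sequence at different concentrations or buffers, and over linkers, and negative values can be taken as non-binding.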
# [1] = biological target: Fuc(a1-3)[Gal(b1-4)]Glc6S
# How it was run: as §1
# [2] = biological target: Fuc(a1-3)[Gal(b1-4)]GlcNAc
# How it was run: as §1
# [3] = biological target: Fuc(a1-3)[Gal(b1-4)]GlcNAc(b1-2)Man
# How it was run: as §1
# [4] = biological target: Fuc(a1-3)[Gal(b1-4)]GlcNAc(b1-2)Man(a1-3)[Fuc(a1-3)[Gal(b1-4)]GlcNAc(b1-2)Man(a1-6)]Man(b1-4)GlcNAc(b1-4)GlcNAc
# How it was run: as §1
# [5] = biological target: Fuc(a1-3)[Gal(b1-4)]GlcNAc(b1-2)Man(a1-3)[Fuc(a1-3)[Gal(b1-4)]GlcNAc(b1-2)Man(a1-6)]Man(b1-4)GlcNAc(b1-4)[Fuc(a1-6)]GlcNAc
# How it was run: as §1
# [6] = biological target: Fuc(a1-3)[Gal(b1-4)]GlcNAc(b1-3)Gal(b1-3)[Fuc(a1-4)]GlcNAc
# How it was run: as §1
# [7] = biological target: Fuc(a1-3)[Gal(b1-4)]GlcNAc(b1-3)Gal(b1-4)[Fuc(a1-3)]GlcNAc
# How it was run: as §1
# [8] = biological target: Fuc(a1-3)[Gal(b1-4)]GlcNAc(b1-3)Gal(b1-4)[Fuc(a1-3)]GlcNAc(b1-3)Gal(b1-4)[Fuc(a1-3)]GlcNAc
# How it was run: as §1
# [9] = biological target: Fuc(a1-3)[Gal(b1-4)]GlcNAc(b1-3)GalNAc
# How it was run: as §1
# [10] = biological target: Fuc(a1-3)[Gal(b1-4)]GlcNAc(b1-6)GalNAc
# How it was run: as §1
# [11] = biological target: Fuc(a1-3)[Gal(b1-4)]GlcNAc(b1-6)[Gal(b1-3)GlcNAc(b1-3)]Gal(b1-4)Glc
# How it was run: as §1
# [12] = biological target: Fuc(a1-3)[Gal(b1-4)]GlcNAc6S
# How it was run: as §1
# [13] = biological target: Fuc(a1-3)[Gal3S(b1-4)]Glc
# How it was run: as §1
# [14] = biological target: Fuc(a1-3)[Gal3S(b1-4)]GlcNAc
# How it was run: as §1
# [15] = biological target: Fuc(a1-3)[Gal3S(b1-4)]GlcNAc6S
# How it was run: as §1
# [16] = biological target: Fuc(a1-3)[GalNAc(b1-4)]GlcNAc
# How it was run: as §1
# [17] = biological target: Fuc(a1-3)[GalNAc(b1-4)]GlcNAc6S
# How it was run: as §1
# Fuc(a1-4)GlcNAc = biological target: Fuc(a1-4)GlcNAc
# How it was run: as §1
# Fuc(b1-3)GlcNAc = biological target: Fuc(b1-3)GlcNAc
# How it was run: as §1
# Gal(a1-2)Gal = biological target: Gal(a1-2)Gal
# How it was run: as §1
# Gal(a1-3)Gal = biological target: Gal(a1-3)Gal
# How it was run: as §1
# Gal(a1-3)Gal(b1-3)GlcNAc = biological target: Gal(a1-3)Gal(b1-3)GlcNAc
# How it was run: as §1
# [18] = biological target: Gal(a1-3)Gal(b1-3)GlcNAc(b1-2)Man
# How it was run: as §1
# [19] = biological target: Gal(a1-3)Gal(b1-3)GlcNAc(b1-2)Man(a1-3)[Gal(a1-3)Gal(b1-3)GlcNAc(b1-2)Man(a1-6)]Man(b1-4)GlcNAc(b1-4)GlcNAc
# How it was run: as §1
# [20] = biological target: Gal(a1-3)Gal(b1-3)GlcNAc(b1-3)GalNAc
# How it was run: as §1
# [21] = biological target: Gal(a1-3)Gal(b1-3)GlcNAc(b1-6)GalNAc
# How it was run: as §1
# [22] = biological target: Gal(a1-3)Gal(b1-3)[Fuc(a1-4)]GlcNAc(b1-2)Man(a1-3)[Gal(a1-3)Gal(b1-3)[Fuc(a1-4)]GlcNAc(b1-2)Man(a1-6)]Man(b1-4)GlcNAc(b1-4)GlcNAc
# How it was run: as §1
# Gal(a1-3)Gal(b1-4)Glc = biological target: Gal(a1-3)Gal(b1-4)Glc
# How it was run: as §1
# Gal(a1-3)Gal(b1-4)GlcNAc = biological target: Gal(a1-3)Gal(b1-4)GlcNAc
# How it was run: as §1
# [23] = biological target: Gal(a1-3)Gal(b1-4)GlcNAc(b1-2)Man
# How it was run: as §1
# [24] = biological target: Gal(a1-3)Gal(b1-4)GlcNAc(b1-2)Man(a1-3)[Gal(a1-3)Gal(b1-4)GlcNAc(b1-2)Man(a1-6)]Man(b1-4)GlcNAc(b1-4)GlcNAc
# How it was run: as §1
# [25] = biological target: Gal(a1-3)Gal(b1-4)GlcNAc(b1-3)GalNAc
# How it was run: as §1
# [26] = biological target: Gal(a1-3)Gal(b1-4)GlcNAc(b1-6)GalNAc
# How it was run: as §1
# [27] = biological target: Gal(a1-3)Gal(b1-4)[Fuc(a1-3)]GlcNAc
# How it was run: as §1
# [28] = biological target: Gal(a1-3)Gal(b1-4)[Fuc(a1-3)]GlcNAc(b1-2)Man(a1-3)[Gal(a1-3)Gal(b1-4)[Fuc(a1-3)]GlcNAc(b1-2)Man(a1-6)]Man(b1-4)GlcNAc(b1-4)GlcNAc
# How it was run: as §1
# Gal(a1-3)GalNAc = biological target: Gal(a1-3)GalNAc
# How it was run: as §1
binder,measurement,setting,value
B1,glycan array binding signal (z-score),Fuc(a1-3)GlcNAc,-0.691
same,glycan array binding signal (z-score),[1],1.45
same,glycan array binding signal (z-score),[2],-0.535
same,glycan array binding signal (z-score),[3],-0.136
same,glycan array binding signal (z-score),[4],-0.169
same,glycan array binding signal (z-score),[5],0.877
same,glycan array binding signal (z-score),[6],-0.664
same,glycan array binding signal (z-score),[7],-0.187
same,glycan array binding signal (z-score),[8],-0.679
same,glycan array binding signal (z-score),[9],0.467
same,glycan array binding signal (z-score),[10],-0.366
same,glycan array binding signal (z-score),[11],-0.613
same,glycan array binding signal (z-score),[12],0.44
same,glycan array binding signal (z-score),[13],-0.105
same,glycan array binding signal (z-score),[14],-0.491
same,glycan array binding signal (z-score),[15],1.58
same,glycan array binding signal (z-score),[16],-0.084
same,glycan array binding signal (z-score),[17],1.13
same,glycan array binding signal (z-score),Fuc(a1-4)GlcNAc,-0.688
same,glycan array binding signal (z-score),Fuc(b1-3)GlcNAc,-0.707
same,glycan array binding signal (z-score),Gal(a1-2)Gal,0.195
same,glycan array binding signal (z-score),Gal(a1-3)Gal,0.113
same,glycan array binding signal (z-score),Gal(a1-3)Gal(b1-3)GlcNAc,-0.602
same,glycan array binding signal (z-score),[18],-0.504
same,glycan array binding signal (z-score),[19],1.55
same,glycan array binding signal (z-score),[20],0.529
same,glycan array binding signal (z-score),[21],0.428
same,glycan array binding signal (z-score),[22],10.5
same,glycan array binding signal (z-score),Gal(a1-3)Gal(b1-4)Glc,-0.019
same,glycan array binding signal (z-score),Gal(a1-3)Gal(b1-4)GlcNAc,-0.195
same,glycan array binding signal (z-score),[23],-0.548
same,glycan array binding signal (z-score),[24],1
same,glycan array binding signal (z-score),[25],1.27
same,glycan array binding signal (z-score),[26],0.296
same,glycan array binding signal (z-score),[27],1.36
same,glycan array binding signal (z-score),[28],0.62
same,glycan array binding signal (z-score),Gal(a1-3)GalNAc,-0.323
